{
  "source": "PubChem BioAssay AID1347417",
  "about": "(National Center for Advancing Translational Sciences (NCATS), 2020)",
  "note": "About 5,300 (4.4%) of roughly 120,000 compounds were called active. The inconclusive results got no clear call from the source; some entries with a clear call stand among them for comparison. Calls come from the whole dose curve; as a rule, active = well fitted inhibition curve with a large enough effect; inconclusive = small, poorly fitted or top-dose-only effect; inactive = no such curve, though single readings can be large or run the other way. Potencies of inconclusive entries are doubtful fits and often do not repeat.",
  "data": [
    {"test": "qHTS Primary assay for Inhibitors of Plasmodium falciparum Dd2 growth in vitro; note: nearly all actives have a fitted effect of over 65% in size; note: potency is the fitted concentration of half-maximal effect; tags give direction and shape of the fitted curve;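 for activity, negative = inhibition: plate controls were DMSO vehicle for no effect and reference drug for full effect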", "conditions": "P. falciparum Dd2 growth, SYBR Green, 72 h; activity, negative = inhibition: at 28.9 µM (top of the series) unless noted; series mostly up to 28.9 µM", "in_short": "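Readout: SYBR Green fluorescence, 485 nm excitation, 535 nm emission, after ~16 h lysis at 37C. Before that, Dd2-infected red cells (2.5% hematocrit) grew 72 h with compound, 29 uM top final concentration.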", "values": [
      {"molecule": "COc1ccc(C(=O)N2C(C(=O)N3CCCC3)COC23CCN(C(=O)c2cccc(C)c2)CC3)cc1", "note": "(stereo unspecified)", "activity, negative = inhibition": "inactive: 0.332%"},
      {"molecule": "Cc1cc(CN2C[C@@H](CO)[C@H](NC(=O)C3CCC3)C2)n(C)n1", "Potency": "inconclusive: 2.51 µM [inhibitor, single point]"},
      {"molecule": "CCC1CN(C(=O)N2CCC(C(=O)NCCN(CC)CC)CC2)c2cc(C)ccc2O1", "note": "(stereo unspecified)", "outcome": "inactive"},
      {"molecule": "CCc1nc2ccccc2n1CCCCOc1ccc(C)cc1", "Potency": "inconclusive: 10 µM [inhibitor, single point]"},
      {"molecule": "CCN(CC)CCNC(=O)c1ccc(Cn2c(SCc3ccccc3)nc3cccnc32)cc1", "Potency": "inconclusive: 10 µM [inhibitor, single point]"},
      {"molecule": "Cc1ccc(CNC(=O)c2c(C)sc3ccn(CC(C)C)c(=O)c23)o1", "Potency": "inconclusive: 1.26 µM [inhibitor, partial curve, poor fit]"},
      {"molecule": "Cc1cccc(-n2nc(-c3c(C)nc4scc(CC(=O)NCCC(C)C)n4c3=O)cc2C)c1", "activity, negative = inhibition": "inactive: -4.59%"},
      {"molecule": "CNC(=O)CCn1ncc2cc(OCc3ccccc3-c3ccccc3OC)ccc21", "Potency": "inconclusive: 1.78 µM [inhibitor, full curve, poor fit]"},
      {"molecule": "COCC1CN(Cc2cccc(OC(F)(F)F)c2)CC12CCNCC2", "note": "(stereo unspecified)", "Potency": "active: 1.26 µM"},
      {"molecule": "CNC(=O)c1c(NC(=O)c2ccc(S(=O)(=O)N3CCC(C)CC3)cc2)sc2c1CCC2", "activity, negative = inhibition": "inactive: -0.403%"},
      {"molecule": "Cc1ccc(N2C(=O)CSC23C(=O)N(CC(=O)NCc2ccccc2)c2ccccc23)cc1C", "note": "(stereo unspecified)", "Potency": "inconclusive: 17.8 µM [inhibitor, single point]"},
      {"molecule": "COCCCNC(=O)c1ccc(NC(=O)c2nsc3ccccc23)cc1", "Potency": "inconclusive: 10 µM [inhibitor, single point]"},
      {"molecule": "COc1ccc(C)cc1NC(=O)Cn1c(-c2ccc(Cl)cc2)nc(C)cc1=O", "outcome": "inactive"},
      {"molecule": "O=C(NCc1ccccn1)c1ccc(CN2C(=O)NC3(CCS(=O)(=O)CC3)C2=O)cc1", "outcome": "inactive"},
      {"molecule": "CCc1noc(-c2ccn3c(CNC(=O)COc4ccc(F)cc4)nnc3c2)n1", "activity, negative = inhibition": "inactive: -3.16%"},
      {"molecule": "Cc1cc(N2CCC(NC(=O)c3ccc4[nH]ccc4c3)C2=O)ccc1F", "note": "(stereo unspecified)", "Potency": "inconclusive: 8.91 µM [inhibitor, partial curve, poor fit]"},
      {"molecule": "Cc1cccc(C)c1OCc1cc(C(=O)N2CCCC(C(=O)c3nccn3C)C2)no1", "note": "(stereo unspecified)", "Potency": "inconclusive: 10 µM [inhibitor, partial curve, poor fit]"},
      {"molecule": "OC1(c2cccc(C(F)(F)F)c2)CCN(Cc2nc(-c3cccs3)no2)CC1", "Potency": "inconclusive: 17.8 µM [inhibitor, single point]"},
      {"molecule": "Cc1ccc(C)c(N2CCN(CCCNC(=O)c3cnn(-c4ccccc4Cl)c3C3CCN(C(=O)OC(C)(C)C)CC3)CC2)c1", "Potency": "active: 2.24 µM"},
      {"molecule": "Cc1ccc(C(=O)Nc2sc3c(c2C(=O)NCc2ccco2)CCC(C(C)(C)C)C3)cc1", "note": "(stereo unspecified)", "Potency": "inconclusive: 1.41 µM [inhibitor, full curve]"},
      {"molecule": "Cc1ccc(C)c(N2CCN(C(c3ccccc3)c3nnc(-c4ccccc4F)o3)CC2)c1", "note": "(stereo unspecified)", "Potency": "inconclusive: 10 µM [inhibitor, single point]"},
      {"molecule": "COc1ccc(Cc2nc3nccc(-c4cc(OC)c(OC)c(OC)c4)n3n2)cc1", "Potency": "inconclusive: 10 µM [inhibitor, partial curve]"},
      {"molecule": "COc1ccc(C2(C(=O)N(C)Cc3cccc(OC(F)(F)F)c3)CCOCC2)cc1", "Potency": "inconclusive: 11.2 µM [inhibitor, partial curve, poor fit]"},
      {"molecule": "CCOc1ccc(-c2ccc(NS(=O)(=O)c3ccc(C)cc3)cc2)nn1", "Potency": "active: 10 µM"},
      {"molecule": "O=C(CCc1nc(-c2cccs2)no1)Nc1cccc([N+](=O)[O-])c1", "Potency": "inconclusive: 11.2 µM [inhibitor, single point]"},
      {"molecule": "CC(C)N1CCN(C(=O)Cc2cccn2-c2ccc(F)cc2)CC1", "Potency": "inconclusive: 20 µM [inhibitor, single point]"},
      {"molecule": "CCOc1ccccc1C(=O)N1CCCn2ccnc2C1CC", "note": "(stereo unspecified)", "outcome": "inactive"},
      {"molecule": "O=C(NCCC1=CCCCC1)c1cc2n(n1)CC(c1ccc3c(c1)OCO3)OC2", "note": "(stereo unspecified)", "outcome": "inactive"},
      {"molecule": "COC(=O)c1cccc(C(=O)NC2CCCN(CCCc3ccccc3)C2)c1", "note": "(stereo unspecified)", "Potency": "active: 8.91 µM"},
      {"molecule": "O=C1NCCCCCCN(C(=O)C2CC2)[C@H]2CCCC[C@@H]12", "activity, negative = inhibition": "inactive: 15.9%"},
      {"molecule": "Cn1cc(CN[C@H]2C[C@H]3C(=O)NC[C@@H](CCC(=O)NCc4ccc(F)cc4)N3C2)c2ccccc21", "Potency": "inconclusive: 8.91 µM [inhibitor, partial curve, poor fit]"},
      {"molecule": "CCOc1ccc(-c2nonc2NC(=O)COc2c(C)cc(C)cc2C)cc1OCC", "Potency": "inconclusive: 0.1 µM [inhibitor, full curve, poor fit]"},
      {"molecule": "COc1ccc(-c2nc(CN3C(=O)CN=C(c4ccccc4)c4ccccc43)c(C)o2)cc1", "Potency": "inconclusive: 12.6 µM [inhibitor, partial curve, poor fit]"},
      {"molecule": "Cc1cc(-c2cc3c(cn2)CN(Cc2ccccc2O)CCN3)ccn1", "Potency": "inconclusive: 31.6 µM [inhibitor, single point]"},
      {"molecule": "CCc1cccc(NC(=O)CSC2=Nc3ccccc3N=C(c3ccc(F)cc3)C2)c1", "Potency": "inconclusive: 11.2 µM [inhibitor, single point]"},
      {"molecule": "O=C1NCCCCCCN(S(=O)(=O)c2ccccc2)[C@H]2C[C@H](c3nc(-c4cccnc4)no3)C[C@@H]12", "Potency": "inconclusive: 1 µM [inhibitor, partial curve, poor fit]"},
      {"molecule": "CC1(C)CC(NC(=O)C2CC(=O)N(c3n[nH]c4ccccc34)C2)CC(C)(C)N1", "note": "(stereo unspecified)", "activity, negative = inhibition": "inactive: -8.01%"},
      {"molecule": "COc1ccc(NC(=O)Cn2c(SCc3cc(C)ccc3C)nc3ccncc32)c(OC)c1OC", "activity, negative = inhibition": "inactive: -16.8%"},
      {"molecule": "CC(=O)Nc1ccc(CN2CCCC(c3nc4ccc(F)cc4c(=O)[nH]3)C2)cc1", "note": "(stereo unspecified)", "Potency": "inconclusive: 3.55 µM [inhibitor, partial curve, poor fit]"},
      {"molecule": "S=C(NC1CCCCC1)N[C@H]1CO[C@H]2[C@@H]1OC[C@@H]2n1nnnc1-c1ccc2c(c1)OCO2", "Potency": "inconclusive: 8.91 µM [inhibitor, single point]"},
      {"molecule": "COc1cc2c(=O)n(CCc3ccccc3)c(=O)n(CC(=O)Nc3ccccc3)c2cc1OC", "Potency": "inconclusive: 1.78 µM [inhibitor, full curve, poor fit]"}
    ]}
  ]
}
